Measurements from patent US7351409B2, “Tumor antigens and CTL clones isolated by a novel procedure” (Ludwig Institute for Cancer Research, priority 1998, dated 2008).

Tested on: clone LB1137 H4.13
Test: Peptide cytotoxicity assay, autologous target cells
Format: cell-based, human
Conditions: effector to target ratio of 10:1
Description: The sequence of the putative fragment of the MAGE-A4 protein encoded by this region was screened for prediction of an HLA-a2 binding peptide with the software available at the website of the National Institute of Health. Peptide […] (SEQ ID N O: 44) (MAGE-A4 230-239) had the highest score. It was synthesized and tested in a cytotoxicity assay at an effector to target ratio of 10:1. Peptide

GVYDGREHTV [MAGE-A4 peptide presented by HLA-A2]
sensitization of autologous target cells to lysis by CTL clone: sensitize
